From the supplement of paper PMC3334620
The full ranking holds about 33,000 sequences; the median of “E-score (-0.5 to 0.5)” is about -0.013, and the highest 2% start at about 0.3. Some of the results follow.

Target: T1, Msn1 (UniProt P22148)
T1 sequence: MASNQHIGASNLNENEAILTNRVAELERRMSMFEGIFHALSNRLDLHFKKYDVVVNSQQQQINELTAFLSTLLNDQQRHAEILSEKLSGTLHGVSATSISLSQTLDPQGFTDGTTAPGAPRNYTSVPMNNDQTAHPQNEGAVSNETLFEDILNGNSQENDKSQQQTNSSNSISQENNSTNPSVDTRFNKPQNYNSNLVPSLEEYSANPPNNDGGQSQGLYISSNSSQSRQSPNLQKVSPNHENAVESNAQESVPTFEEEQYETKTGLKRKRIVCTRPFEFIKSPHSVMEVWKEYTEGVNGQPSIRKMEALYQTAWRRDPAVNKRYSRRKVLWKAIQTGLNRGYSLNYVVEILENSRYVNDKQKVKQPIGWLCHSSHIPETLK
Experiment: PBM E-score (8-mer binding enrichment) (E-score (-0.5 to 0.5)); higher = stronger / more preferred TF binding; most listed sequences are background and not binding sites
Conditions: protein concentration: 200 nM; construct: GST-full length
Experimental: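 Universal 'all 10-mer' protein binding microarrays (Agilent AMADID 015681) probed with GST-tagged S. cerevisiae TFs (full-length or DBD) made by in vitro transcription/translation (PURExpress), about 100-200 nM. Bound TF was detected with fluorescent anti-GST. Each ungapped 8-mer (which stands for itself and its reverse complement) is scored by the PBM enrichment score (E-score), a modified Wilcoxon-Mann-Whitney statistic from -0.5 to +0.5, computed with the Universal PBM Analysis Suite. Scale: above 0.35 generally sequence-specific binding.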

Sequence	PBM E-score
ACTCGGCA	0.0864
AATCCAAG	0.0229
TCCGGACA	0.453
TACCTATA	-0.0921
AAGTAAAA	-0.016
CGCCGCCA	-0.18
CCGTACCC	-0.206
AAAACCTA	0.13
AAGCCGAA	0.0864
ACTGACTA	-0.0565
GTTTAATA	0.315
ACCTCTAT	-0.0571
ACCCGAGA	0.0341
CGGTGAGA	-0.0137
AGACCCGG	0.121
ACTGTGCT	-0.0208
CAATACAC	0.117
ATGTCCCG	0.474
GGGCCTAC	-0.328
CACTGGCG	-0.12
CCTACAAA	0.0183
GCACCACC	-0.273
GCCGTAGC	-0.0663
CGTCAGAG	-0.0113
GACGACAA	0.299

Sequence	PBM E-score
AAACGCTA	0.0634
GTGTTACA	0.0825
AGGCGATA	-0.0729
TCACGGAA	0.158
AGCCGCCA	-0.256
CGGGCTCA	-0.289
AAGCATCC	-0.11
CTATTAAG	-0.0541
CTGACAGA	0.104
CGGAGACC	-0.0836
ATTGGAAA	-0.0653
AGTAAAAT	0.131
TATCAATA	0.0939
AACCACAC	-0.00231
CAATGCAA	0.0404
GTACCTTA	0.191
GCCTAACA	0.0762
CCCACTAG	-0.21
GTGAGCTA	-0.182
AAAACGTC	0.271
CACATCGC	-0.14
TATGTACA	0.283
GTCAAAAC	0.12
GATAGTAA	0.089
AGGCCCGC	-0.123

Sequence	PBM E-score
AAAGCCAC	-0.121
CATGAGAC	0.0547
CTCTGAAG	-0.188
CAAGACCG	0.0431
ACTGCCTC	-0.187
TGGCCTAA	-0.0464
AACCGTCT	-0.235
ATCATCCA	-0.126
TGCATCAA	-0.0575
GGCGCATA	-0.0582
ATATAAAG	0.175
CTGGAGAC	-0.112
TGACTGCA	-0.212
AAAGGACG	0.032
AAAAATTG	0.0171
CGACATAG	0.15
TGGCATAA	0.11
GGGGCGAC	-0.156
TCCTGCAA	-0.0304
CGTACGCA	-0.0839
CGTTCTTA	0.0784
CAATGCCA	-0.0168
ACATCGCC	-0.0222
AACCATTC	-0.0452
TAGAAGAA	0.0391

Sequence	PBM E-score
CGCCATAC	-0.0843
CCGAAGTA	0.0599
AGTTTTAT	0.106
CAAATAAC	0.244
AATCAACT	0.139
GATCGCGA	0.14
TGACGAAA	0.0272
CTGTACAA	0.161
TACGGAGA	-0.0508
CCGGTAAG	0.0811
TAACGCGA	0.00871
GCGCTCTA	-0.127
ATGGGGAG	-0.185
GGTTTCGA	0.112
TATCTAAA	0.167
AAAAAGCC	0.0424
AGATTGTA	0.091
ATCTGTAG	-0.185
TACACGGA	0.303
GCCACAGC	-0.179
AAGCGACG	-0.0651
AACTCAAA	0.119
CAGGGCAC	-0.123
GCAGTACC	-0.0294
AGTAATAG	-0.0281

Sequence	PBM E-score
AGGGGCCA	-0.249
CGATGGCC	-0.109
CTCGACTA	0.13
GTAGGTGA	-0.0513
CGTAAGCC	-0.12
TCAGATGA	0.199
AATGGGGG	-0.384
AGTTCGAT	-0.0328
AAGAAAGC	-0.0971
AACTCCGT	0.0904
ACAGCCAT	-0.0135
ACGGTAAG	-0.0433
GCGGGTAC	-0.0187
ACAACACA	0.123
CAACCGAA	0.103
AGAATGGC	-0.00666
TATCCTCA	0.0949
AGGCAACT	0.0171
AACGAAAT	0.18
AAGGGACC	-0.0619
CCTCATAG	-0.181
AACTGTAT	0.126
GCTAGTAC	0.107
CCAGGAAG	-0.0692
TCATCGCA	0.0539

Sequence	PBM E-score
ACTAGCCC	-0.0582
AGAGGCAG	-0.0684
AGGGAGTG	-0.343
AGCACGTG	0.118
AATAGTGA	0.202
CGGCTACC	-0.107
AATGCGTC	0.031
GTTCCTTA	-0.016
ACGGGAAG	-0.163
CAGAGTAA	-0.139
CAGAGATA	0.118
CTGGCTCC	-0.179
AGAGCCTC	-0.172
CATTAGAC	-0.0881
AGAGCGAA	-0.00578
GCTCATGA	-0.0824
GAGGGGTA	-0.236
AGCGAGTA	0.209
AGTGCCAA	-0.0241
GGATGGCC	-0.257
CTGAGACC	-0.18
ACTGGCAC	-0.159
GATCTCAA	0.0276
TATAAATA	0.217
GGGTTTAC	0.0437

Sequence	PBM E-score
ATACCTAA	0.162
ATACGCCG	-0.0566
AATACATA	0.117
AACGGGCG	-0.103
GGTTACAA	0.138
AACCTGCA	-0.131
AAAGCACA	-0.00823
AAACTAGC	-0.0821
GGATAAAC	0.0538
CGCAGGTC	-0.157
CCCCGTGA	-0.135
GAGAATAA	0.128
AAGAAATC	-0.144
ACAGAGCA	0.0247
ACTCATTA	0.0179
GTCCTCGA	0.181
ATATTGCG	0.0632
AATATCTC	0.22
CAACGCGC	0.156
ACGGTGAT	-0.0895
AGCAACAA	0.133
ATCCGTCG	-0.0239
